Molecules are shown by their SMILES. Hit rate of the full screen: of about 45,000 compounds, about 65 (0.1%) were called active. Calls come from the whole dose curve; as a rule, active = well fitted activation curve with a large enough effect; inconclusive = small, poorly fitted or top-dose-only effect; inactive = no such curve, though single readings can be large or run the other way. This is one part of the list.

The target of the experiment is Galactocerebrosidase (Homo sapiens) (UniProt P54803). As to the kind of experiment: A Novel Cell-Based Assay to Identify Small Molecules for B -Galactocerebrosidase. Note: 0% is about no effect; nearly all actives have a fitted effect of over 65% in size. As to conditions: 145M-Twi-hGALC-G270D cells (Twitcher mouse brain line with human GALC G270D), HMU-beta-Gal fluorescence, 48 h; series mostly up to 57.5 µM; activation: at the top concentration. The procedure, abridged: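 Live 145M-Twi cells (Twitcher mouse brain-derived, GALC-null) stably expressing human GALC-G270D, with a wild-type GALC line, were compound-treated. Residual GALC activity was then read as fluorescence from 0.1 mM final HMU-β-gal at pH 5.2; higher signal means activation.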
Sequence of UniProt P54803 (P54803 whole entry, looked up): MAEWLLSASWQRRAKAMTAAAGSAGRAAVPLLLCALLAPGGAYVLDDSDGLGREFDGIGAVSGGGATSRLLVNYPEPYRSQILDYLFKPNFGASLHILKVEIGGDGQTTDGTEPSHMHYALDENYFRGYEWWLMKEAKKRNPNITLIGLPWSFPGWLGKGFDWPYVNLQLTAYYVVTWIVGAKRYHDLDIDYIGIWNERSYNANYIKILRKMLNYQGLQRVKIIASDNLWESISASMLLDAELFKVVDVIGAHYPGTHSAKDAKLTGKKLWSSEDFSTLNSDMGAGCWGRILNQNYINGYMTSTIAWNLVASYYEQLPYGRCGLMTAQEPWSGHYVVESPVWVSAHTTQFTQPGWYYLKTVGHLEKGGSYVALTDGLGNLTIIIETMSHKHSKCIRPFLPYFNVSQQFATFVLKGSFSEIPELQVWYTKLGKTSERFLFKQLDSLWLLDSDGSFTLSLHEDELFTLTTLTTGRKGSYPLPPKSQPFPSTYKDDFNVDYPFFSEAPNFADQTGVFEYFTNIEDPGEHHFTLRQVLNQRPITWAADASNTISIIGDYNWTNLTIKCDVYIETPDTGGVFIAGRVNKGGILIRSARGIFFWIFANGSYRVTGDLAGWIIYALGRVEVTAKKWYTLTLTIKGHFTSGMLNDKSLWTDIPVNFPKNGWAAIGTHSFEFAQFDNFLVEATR
As to `CC1=C(C(=O)Nc2ccc(C)cc2C)C(c2ccccc2)n2ncc(C(=O)Nc3ccccc3)c2N1` (configuration not stated), the “activation” value was inactive: -5.29%.
The same measure for `COC(=O)C1=C(C)NC(C)=C(C(=O)OCCN2CCN(C(c3ccccc3)c3ccccc3)CC2)C1c1cccc([N+](=O)[O-])c1` (configuration not stated): inactive: -17.6%; for `CCS(=O)(=O)c1nc(S(=O)(=O)c2ccc(Cl)cc2)c(NCc2ccccc2Cl)s1`: inactive: -25.9%; for `CCOc1ccc(CNC(=O)c2ccc(Sc3ccc(Cl)cc3)c(NC(C)=O)c2)cc1OC`: inactive: -1.82%.
The same measure for `Cc1cc(=O)n2nc(N3CCC(C(=O)Nc4ccc(C)c(Cl)c4)CC3)sc2n1`: inactive: -2.91%; for `Cc1ccc(N(Cc2cccs2)C(=O)c2ccc(Br)o2)cc1`: inactive: 11.9%; for `CCSc1ncc(Cl)c(C(=O)Nc2nc3ccc(OC)cc3s2)n1`: inactive: -10.5%.
In the case of `COc1ccc(CNC(=O)Cc2c(C)c3c(cc(C)c4c(C)c(C)oc43)oc2=O)cc1` it was inactive: -3.07%; in that of `Cc1c(C)c2c(c(C)c1O)CCC(C)(COc1ccc(CC3SC(=O)NC3=O)cc1)O2` (configuration not stated), inactive: -9.69%; in that of `CCCCC(CC)CNC(=O)c1ccc2c(=O)n(Cc3ccc(OC)cc3)c(=O)[nH]c2c1` (configuration not stated), inactive: -3.13%.
As for `Cn1nc(C(=O)NCc2ccc(Cl)cc2)c2c1-c1ccccc1SC2`, the “activation” value is inactive: -13.2%.
`CCOc1cc(C2c3c(-c4ccc(Br)cc4)n[nH]c3C(=O)N2c2ccc(Cl)cc2)ccc1O` (configuration not stated): the “activation” value was inactive: -3.34%.
The same measure for `COc1ccc(CNC(=O)CCS(=O)(=O)c2ccc3c(c2)oc(=O)n3C)cc1`: inactive: -18.6%; for `CCc1nonc1NC(=O)c1oc2ccccc2c1C`: inactive: -12.7%.
In the case of `Cc1ccc(CNC(=O)c2ccc3c(O)c(S(=O)(=O)c4ccccc4)c(=O)[nH]c3c2)cc1` it was inactive: -26.3%.
The same measure for `CCOC(=O)N1CCC(NC(=O)c2ccc3c(c2)N(Cc2ccc(F)cc2)C(=O)c2ccccc2S3(=O)=O)CC1`: inactive: 7.07%; for `CCOc1ccccc1NC(=O)c1nnn(CC(=O)Nc2ccc(OC)c(OC)c2)c1N`: inactive: -10.8%.
With `O=C(CSc1nc2ccccc2nc1Cc1ccc(Cl)cc1)NCCc1ccccc1`, the “activation” value is inactive: -17.5%.
In the case of `CCOc1ccc(NC(=O)C(NS(=O)(=O)c2ccc3c(c2)CCN3C(C)=O)C(C)C)cc1` (configuration not stated) it was inactive: 15.4%.
The same measure for `CCCCC(=O)Nc1ccc2nc(SCC(=O)N3CCCC3)sc2c1`: inactive: -17.2%; for `COc1ccccc1-c1cc(C(=O)N2CCCCC2C)no1` (configuration not stated): inactive: -9.88%.
With `Cc1ccc(C)c(N2CCN(Cc3csc(C)c3C)CC2)c1`, the “activation” value was inactive: 0.875%.
The same measure for `COc1ccc(CNC(=O)c2nn(-c3ccccc3C)nc2CO)cc1`: inactive: -11.2%.
The same measure for `Nc1c(-c2nc(-c3cccs3)no2)nnn1-c1cccc(Cl)c1`: inactive: -8.22%.
In the case of `COc1ccc(OC)c(C(C)NC(=O)Cn2c(=O)cc(C)c3c(C)nn(-c4ccc(C)cc4)c32)c1` (configuration not stated) it was inactive: -1.77%; in that of `CCOc1ccccc1CC1C(=O)Nc2ccc(Br)cc21` (configuration not stated), inactive: -7.13%.
Take `COc1cccc(CNC(=O)C(NS(=O)(=O)c2ccc3c(c2)CCN3C(C)=O)C(C)C)c1` (configuration not stated): the “activation” value is inactive: -1.94%.
In the case of `CCc1ccc(Nc2ncnc3c2cnn3-c2cc(Cl)ccc2C)cc1` it was inactive: -19.3%.
The same measure for `COC(=O)c1ccc(Cn2c(=O)cc(C(F)(F)F)c3c(C)nn(C)c32)cc1`: inactive: -2.94%.
The same measure for `CCCn1c2ccccc2c2cnn(CC(=O)NCCc3ccccc3)c(=O)c21`: inactive: -6.69%; for `CCn1cc(C(=O)OCC(=O)Nc2ccc(F)cc2F)c(=O)c2ccc(C)nc21`: inactive: 4.26%; for `Cc1cccc(-c2nc(Cn3c(=O)cc(-c4ccccc4)c4c(C)nn(C)c43)c(C)o2)c1`: inactive: -16.8%.
For `Cc1cc(N2CCCCC2)nc2ccc(NC(=O)/C=C/c3ccccc3Cl)cc12`, the “activation” value is inactive: -12.8%.
In the case of `Cc1ccccc1Cn1c(=O)n(CCc2ccccc2)c(=O)c2ccccc21` it was inactive: 6.86%; in that of `CCOc1ccc(S(=O)(=O)N(CC(=O)NCCSc2ccccc2)c2ccccc2)cc1`, inactive: -9.35%; in that of `CCN(c1ccc(OC)cc1)S(=O)(=O)c1ccc2[nH]c(=O)ccc2c1`, inactive: -12.4%.
The same measure for `O=C(NCc1ccc(Cl)cc1)C1CCCN(c2nc3ccccc3n3cccc23)C1` (configuration not stated): inactive: -9.41%; for `O=C(Cn1c2ncccc2c(=O)n1-c1ccccc1)Nc1ccc(F)c(F)c1`: inactive: -0.502%; for `CCCCOc1cccc(NC(=O)CSc2nnc(C)s2)c1`: inactive: -41.9%.
The same measure for `Cc1cc(Nc2cccc(C(F)(F)F)c2)nc2ccc(NC(=O)c3ccc(=O)[nH]c3)cc12`: inactive: -5.66%; for `O=C(NCc1ccc(F)cc1)c1c(O)nc2ccccn2c1=O`: inactive: -13%.
For the compound `CN(Cc1ccccc1)c1ncnc2onc(-c3ccc(F)cc3)c12`, the “activation” value was inactive: -27.7%.
On to `O=C(COc1ccccc1)Nc1nnc(S(=O)(=O)N2CCCC2)s1`, for which the “activation” value is inactive: 5.78%.
In the case of `CCOc1ccc(-n2c(=O)c3c4c(sc3n(CC(=O)Nc3cccc(C(F)(F)F)c3)c2=O)CCCCC4)cc1` it was inactive: -22.6%; in that of `COc1ccccc1NC(=O)C(Cc1ccccc1)NS(=O)(=O)c1ccc2c(c1)c(=O)n(C)c(=O)n2C` (configuration not stated), inactive: -0.926%; in that of `O=C(OCC1CCCO1)c1ccc2c(c1)N(Cc1ccccc1Cl)C(=O)c1ccccc1S2(=O)=O` (configuration not stated), inactive: -11%.
The same measure for `O=C(Nc1ccc2oc(-c3ccc4ccccc4c3)nc2c1)c1ccccc1F`: inactive: -8.78%; for `CC(NC(=O)CCNS(=O)(=O)c1cccc2nsnc12)c1ccccc1` (configuration not stated): inactive: -9.5%; for `O=C(Nc1cccc(Cl)c1)c1cnc[nH]1`: inactive: -5.66%.
Consider `COc1ccc(Br)cc1C1Sc2ccccc2NC2=C1C(=O)c1ccccc12` (configuration not stated), for which the “activation” value was inactive: -1.99%.
The same measure for `Cc1ccc2c(=O)cc(CSCC(=O)Nc3nnc(C)s3)[nH]c2c1`: inactive: -3.12%; for `COc1ccc(OC)c(NC(=O)CSc2nc3ccccc3nc2N2CCCCC2)c1`: inactive: -20.2%; for `COc1ccc(NC(=O)C2CCC(CNS(=O)(=O)c3ccc(Br)s3)CC2)cc1OC` (configuration not stated): inactive: -3.98%.
The same measure for `CCCC(=O)OCc1cnc(C)c2oc(=O)c(C(=O)Nc3ccccc3)cc12`: inactive: -7.63%.
In the case of `O=C(Nc1ccccc1)c1ccc(Br)c(S(=O)(=O)N2CCCCC2)c1` it was inactive: 1.59%; in that of `COc1ccc(NC(=O)COc2ccc(S(=O)(=O)NC3CCCCC3)cc2)cc1OC`, inactive: -12.1%.
Consider `COc1cc(Cl)c(C)cc1NC(=O)Cn1ncc2c([nH]c3ccccc32)c1=O`, for which the “activation” value is inactive: 2.04%.
In the case of `COc1cccc(C(c2c(O)cc(C)n(Cc3ccco3)c2=O)N2CCN(c3ccccc3)CC2)c1` (configuration not stated) it was inactive: -25.6%; in that of `O=C(CSc1nccn1Cc1ccc(Cl)cc1)Nc1ccc2c(c1)OCCO2`, inactive: -14.4%; in that of `CCOCCCn1c(SCC(=O)Nc2ccc(C)cc2)nc2ccccc2c1=O`, inactive: -3.19%.
For `CCc1ccccc1NC(=O)c1ccc2c(c1)N(Cc1cc(C)ccc1C)C(=O)c1ccccc1S2(=O)=O`, the “activation” value was inactive: -5.48%.
Regarding `Cc1cc(C)n(C(C)CC(=O)NCc2ccc(N(C)C)cc2)n1` (configuration not stated), the “activation” value was inactive: -16%.

(Values after PubChem BioAssay AID1159614 (National Center for Advancing Translational Sciences (NCATS), 2016).)
